Assay [1] addresses T1, 2B4 on NK cells (endogenous) (human (endogenous in NK92.C1, NKL and primary NK cells)) (UniProt Q9BZW8).
T1 sequence: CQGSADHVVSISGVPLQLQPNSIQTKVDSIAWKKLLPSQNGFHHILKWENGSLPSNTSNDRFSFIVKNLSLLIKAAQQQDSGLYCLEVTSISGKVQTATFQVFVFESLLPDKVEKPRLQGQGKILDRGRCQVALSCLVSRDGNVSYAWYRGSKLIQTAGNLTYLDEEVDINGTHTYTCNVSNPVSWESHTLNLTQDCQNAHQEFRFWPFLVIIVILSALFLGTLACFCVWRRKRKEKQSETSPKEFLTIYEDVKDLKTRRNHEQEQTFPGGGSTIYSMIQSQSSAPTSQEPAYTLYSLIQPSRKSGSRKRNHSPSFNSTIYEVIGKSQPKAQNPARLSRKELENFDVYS
The assay is described as follows: flow cytometry on cells; masking of 2B4 on NK cells for soluble CD48-ILZ by CD48 on the same cell, lifted by PI-PLC treatment. (In general: In flow cytometry, cells or beads pass a laser one at a time.)

Protein sequences, listed by entry. Tags and fused reporters are not part of them. Residues count along the entry.
UniProt P09326, residues 27-220: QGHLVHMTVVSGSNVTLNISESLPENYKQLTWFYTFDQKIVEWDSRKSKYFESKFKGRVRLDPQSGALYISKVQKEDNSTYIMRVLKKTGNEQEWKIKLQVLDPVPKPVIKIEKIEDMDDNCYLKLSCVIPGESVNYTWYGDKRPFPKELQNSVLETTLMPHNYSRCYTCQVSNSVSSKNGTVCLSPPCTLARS

The target of assay [2] is T2, 2B4 mutant K68A/E70A (human) (UniProt Q9BZW8).
T2 sequence: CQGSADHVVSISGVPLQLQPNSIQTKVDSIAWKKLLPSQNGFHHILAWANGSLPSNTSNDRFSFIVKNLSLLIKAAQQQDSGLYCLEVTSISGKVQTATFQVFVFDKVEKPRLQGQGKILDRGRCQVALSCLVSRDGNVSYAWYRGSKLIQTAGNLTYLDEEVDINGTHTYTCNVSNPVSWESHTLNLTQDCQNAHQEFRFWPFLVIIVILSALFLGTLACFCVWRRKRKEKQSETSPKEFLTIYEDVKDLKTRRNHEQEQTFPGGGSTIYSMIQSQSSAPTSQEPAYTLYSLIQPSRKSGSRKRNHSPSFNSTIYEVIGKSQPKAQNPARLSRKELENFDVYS
Kind of assay: flow cytometry on cells; binding of sCD48 to the 2B4 mutant K68A/E70A (electronic supplementary figure S1); cells and conditions not given; only the binder purified.

Assay [3] addresses T3, 2B4 βs (2B4 with the CD4 β-strand motif in place of the linker) on HEK293T cells (human) (UniProt Q9BZW8).
T3 sequence: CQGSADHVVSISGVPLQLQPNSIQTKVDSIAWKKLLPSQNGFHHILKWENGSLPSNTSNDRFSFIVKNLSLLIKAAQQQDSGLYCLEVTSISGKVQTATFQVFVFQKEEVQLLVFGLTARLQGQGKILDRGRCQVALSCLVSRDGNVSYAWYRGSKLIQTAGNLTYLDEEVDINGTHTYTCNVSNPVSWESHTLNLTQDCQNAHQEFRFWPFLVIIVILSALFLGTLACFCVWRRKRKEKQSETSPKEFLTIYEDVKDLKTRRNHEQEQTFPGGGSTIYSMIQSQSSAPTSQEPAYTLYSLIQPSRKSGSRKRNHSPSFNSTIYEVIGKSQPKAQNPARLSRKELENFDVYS
The assay is described as follows: flow cytometry on cells; staining of stably transfected HEK293T cells (2B4 wt, 2B4KHT, 2B4 βs) with soluble CD48-ILZ fusion protein; control ILZ fusion protein as staining control; only the binder purified.

Assay [4] concerns the target T4, 2B4KHT (2B4 K54A, H65A, T110A) on HEK293T cells (human) (UniProt Q9BZW8).
T4 sequence: T2 sequence with K33A, H44A, A47K, A49E, T89A
The description is as above.

Assay [5] has as its target T5, 2B4 wt on stably transfected HEK293T cells (human) (UniProt Q9BZW8).
T5 sequence: T2 sequence with A47K, A49E
Described as above.

Assay [6] has as its target T1, 2B4 on NK cells (endogenous) (human (endogenous in NK92.C1, NKL and primary NK cells)). The assay is described as follows: flow cytometry on cells; staining of NK92.C1 and primary NK cells with soluble CD48-ILZ after 1 U/ml PI-PLC for 1 h at 37°C (removes CD48 and all other GPI-anchored proteins); NKp30-ILZ as negative control; only the binder purified.
Assay [7] has the same target. The assay is described as follows: condition: only untreated NK cells that carry CD48 on the same cell (no PI-PLC); flow cytometry on cells; staining of untreated NK92.C1 and primary NK cells, which also express CD48, with soluble CD48-ILZ; NKp30-ILZ as staining control; only the binder purified.

Substitutions are numbered along the chain they refer to. Results are given in words; binding and its absence hold for the method and conditions named. Some results given as binding are weak or reduced against the parent protein; the word gives no strength.

Regarding “CD48 on NK cells (endogenous) (from UniProt P09326 27-220) (ligand)”, in assay [1], the binding result is on record as “binds”.

As for “soluble CD48-ILZ fusion protein (from UniProt P09326 27-220) (ligand)”, the binding entry in assay [2] was “binds”; in assay [3] it was “binds”; in assay [4] it was “no binding”; in assay [5], “binds”; in assay [6] it was “binds”; in assay [7] it was “no binding”.

(Values after paper PMC4892432.)
